Reference: PubChem BioAssay AID624170 (National Center for Advancing Translational Sciences (NCATS), 2012)
The whole screen tested about 410,000 compounds, of which about 850 (0.21%) were called active. This list was built around the results that the source calls inconclusive (neither active nor inactive); the mix of calls is not that of the screen. The call rests on the fitted dose curve; in most records, active means well fitted inhibition curve with a large enough effect; inconclusive means small, poorly fitted or top-dose-only effect, or another doubt; inactive means no such curve, though single readings can be large or run the other way. Potencies of inconclusive entries are left out as doubtful fits.

Target: Glutaminase kidney isoform, mitochondrial (Homo sapiens) (UniProt O94925)
Test: qHTS for Inhibitors of Glutaminase (GLS)
Conditions: GLS enzymatic activity, qHTS titration; series mostly up to 45.5 µM; activity change, negative = inhibition: at the top concentration
Summary of the method: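 hKGA in 45 mM KH2PO4 pH 8.2, 0.02% Tween-20 with pin-transferred compounds; 1 mM L-glutamine (stock) plus glutamate oxidase/HRP/Amplex Red coupling added. Fluorescence read initially and after 30 min at RT.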
On the % scale 0 is the no-effect control and ±100 the full control effect; potency means the concentration at half of the fitted maximal effect; tags describe the fitted curve by direction and shape.

Sequence of UniProt O94925 (O94925 whole entry, looked up, canonical isoform): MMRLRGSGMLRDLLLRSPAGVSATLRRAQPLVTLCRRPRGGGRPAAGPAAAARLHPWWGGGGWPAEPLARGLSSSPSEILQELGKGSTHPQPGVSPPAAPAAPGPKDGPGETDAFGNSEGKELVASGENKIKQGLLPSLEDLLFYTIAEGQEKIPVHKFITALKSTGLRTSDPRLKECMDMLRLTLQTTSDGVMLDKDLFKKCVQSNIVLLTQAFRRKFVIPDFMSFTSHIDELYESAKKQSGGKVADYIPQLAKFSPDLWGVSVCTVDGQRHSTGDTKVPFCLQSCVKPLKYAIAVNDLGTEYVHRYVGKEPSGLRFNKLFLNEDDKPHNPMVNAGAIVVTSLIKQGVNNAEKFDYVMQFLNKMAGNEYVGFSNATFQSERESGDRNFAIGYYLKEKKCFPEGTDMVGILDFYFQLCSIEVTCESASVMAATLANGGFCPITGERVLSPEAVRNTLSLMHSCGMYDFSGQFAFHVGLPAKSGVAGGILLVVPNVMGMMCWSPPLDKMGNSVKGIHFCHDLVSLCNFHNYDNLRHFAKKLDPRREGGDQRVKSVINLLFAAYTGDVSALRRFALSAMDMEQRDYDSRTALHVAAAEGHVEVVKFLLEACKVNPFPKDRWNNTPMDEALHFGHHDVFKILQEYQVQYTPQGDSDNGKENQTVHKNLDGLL

**Q.** S=c1nc(C2CC2)[nH]c2ccccc12 was tested. Which Potency did it give?
**A.** inconclusive [inhibitor, single point]

**Q.** With CC1(c2nnnn2Cc2ccccc2)CCC(=O)N1C1CC1 (configuration not stated) as the compound, how does the Potency read?
**A.** inconclusive [inhibitor, full curve]

**Q.** For C#CCN(C[C@@H]1[C@@H](OC(=O)Nc2c(C)noc2C)[C@@H](OC(=O)Nc2c(C)noc2C)Cn2c(=O)n(CCCCCC)c(=O)n21)S(=O)(=O)c1ccc(C)cc1, which “activity change, negative = inhibition” value is on record?
**A.** inactive: 7.96%

**Q.** COc1cccc(-c2cc(C(=O)Nc3cnn(Cc4ccc(F)cc4)c3)no2)c1 was tested. Which “activity change, negative = inhibition” value did it give?
**A.** inactive: 1.25%

**Q.** Which Potency does the source give for CC(C)CC1=NN(C(=O)c2ccncc2)C(O)(C(F)(F)F)C1 (configuration not stated) here?
**A.** inconclusive [inhibitor, single point]

**Q.** For O=S(=O)(NC(=S)NC1CCCCC1)c1ccc(Br)cc1, which Potency is on record?
**A.** inconclusive [inhibitor, single point]

**Q.** COc1ccc(Nc2cc(C)nc3ccc(OC)cc23)cc1 was tested. Which “activity change, negative = inhibition” value did it give?
**A.** inactive: 11.4%

**Q.** With CC1CCC2(CC1)NC(=O)N(CC(=O)N1CCOCC1)C2=O (configuration not stated) as the compound, how does the “activity change, negative = inhibition” value read?
**A.** inactive: -3.14%

**Q.** With CCOc1ccc(-c2nnc(SCC(=O)NCCc3ccccc3)nc2-c2ccc(OCC)c(OC)c2)cc1OC as the compound, how does the Potency read?
**A.** inconclusive [inhibitor, single point]

**Q.** CCCCSc1nnc2nc(C)cc(C)n12 was tested. Which Potency did it give?
**A.** inconclusive [inhibitor, partial curve, poor fit]

**Q.** Which Potency does the source give for O=S(=O)(c1ccc(NC(=S)NN=C2CCCCC2)cc1)N1CCOCC1 here?
**A.** inconclusive [inhibitor, single point]

**Q.** Which Potency does the source give for CCn1c(-c2ccc(-c3ccccc3)cc2)c[nH]c1=S here?
**A.** inconclusive [inhibitor, partial curve, poor fit]

**Q.** Which Potency does the source give for C=CCn1c(SCC(=O)Nc2cc(Cl)ccc2C(=O)O)nc2sc(C)c(C)c2c1=O here?
**A.** inconclusive [inhibitor, single point]

**Q.** Which Potency does the source give for CN(CCO)c1nc(N)c(C#N)c(CC#N)c1C#N here?
**A.** inconclusive [inhibitor, single point]

**Q.** CCn1c(=S)sc2nc(C)sc21 was tested. Which Potency did it give?
**A.** inconclusive [inhibitor, single point]

**Q.** How did the Potency turn out when S=c1[nH]nc(CN2CCCCC2)n1Cc1ccccc1 was run?
**A.** inconclusive [inhibitor, single point]

**Q.** Which Potency does the source give for COc1cc(C=C2C(=O)OC(C)(C)OC2=O)cc(Cl)c1OCC(=O)Nc1ccccc1 here?
**A.** inconclusive [inhibitor, single point]

**Q.** Which Potency does the source give for CCOc1ccccc1/C=N/Nc1cc(C)nc2ccc(C)cc12 here?
**A.** inconclusive [inhibitor, partial curve]

**Q.** Which “activity change, negative = inhibition” value does the source give for COc1ccc(CNC(=O)COC(=O)C2=COCCO2)cc1 here?
**A.** inactive: 7.19%

**Q.** Which Potency does the source give for O=C(Nc1cccs1)Nc1nnc([C@@H]2C[C@H](O)[C@@H](CO)O2)s1 here?
**A.** inconclusive [inhibitor, single point]

**Q.** Which Potency does the source give for CC(C)OC(=O)c1c(NC(=O)c2cc3nc(-c4ccccc4)cc(C(F)(F)F)n3n2)sc2c1CCCC2 here?
**A.** inconclusive [inhibitor, partial curve, poor fit]

**Q.** For CC1CN(c2ccnc3cc(Cl)ccc23)CC(C)O1 (configuration not stated), which Potency is on record?
**A.** inconclusive [inhibitor, partial curve, poor fit]

**Q.** CCN(CC)CC(=O)Nc1sc(C)c(C)c1C(=O)c1ccc(C)cc1 was tested. Which Potency did it give?
**A.** inconclusive [inhibitor, single point]

**Q.** Which Potency does the source give for Oc1ccc(/C=N/NC(=S)Nc2cccnc2)c(O)c1O here?
**A.** active: 4.47 µM

**Q.** Which Potency does the source give for O=C(c1cc(-c2ccc(Cl)cc2)on1)N1CCCCCC1 here?
**A.** inconclusive [inhibitor, single point]

**Q.** CN(C)c1nc(NCc2ccccc2)nc(N/N=C/c2ccc(Cl)cc2Cl)n1 was tested. Which Potency did it give?
**A.** inconclusive [inhibitor, single point]

**Q.** How did the Potency turn out when Cc1ccc(CSCC(=O)N2CCOCC2)cc1 was run?
**A.** inconclusive [inhibitor, single point]

**Q.** O=C(NC1CCCC1)C(c1ccccn1)N(C(=O)c1csnn1)c1ccccc1 (configuration not stated) was tested. Which Potency did it give?
**A.** inconclusive [inhibitor, full curve]

**Q.** O=C(Cc1ccc(NS(=O)(=O)c2ccc(F)cc2)cc1)NCc1cccnc1 was tested. Which Potency did it give?
**A.** inconclusive [inhibitor, single point]

**Q.** With Cc1ccccc1C(=O)c1cccn1CC(=O)NCCCN1CCCCC1 as the compound, how does the “activity change, negative = inhibition” value read?
**A.** inactive: -9.63%

**Q.** CC(=O)C1=C(O)C(=O)N(c2ccc(C(=O)O)cc2)C1c1ccccc1 (configuration not stated) was tested. Which “activity change, negative = inhibition” value did it give?
**A.** inactive: 1.98%

**Q.** How did the Potency turn out when CC1=C([N+](=O)[O-])C(c2ccc3c(c2)OCO3)N(C)C(=O)N1C (configuration not stated) was run?
**A.** inconclusive [inhibitor, single point]

**Q.** How did the Potency turn out when CCN(Cc1nc2cc(OC)c(OC)cc2c(=O)[nH]1)C(=O)c1ccc(S(=O)(=O)N(C)C)cc1 was run?
**A.** inconclusive [inhibitor, single point]

**Q.** With Nc1ccc(-c2ccc(N)c([N+](=O)[O-])c2)cc1[N+](=O)[O-] as the compound, how does the “activity change, negative = inhibition” value read?
**A.** inactive: 1.85%

**Q.** Which Potency does the source give for CC(=O)N1c2ccc(S(=O)(=O)NCCC(=O)Nc3ccc(OC(F)(F)F)cc3)cc2CC1C (configuration not stated) here?
**A.** inconclusive [inhibitor, partial curve, poor fit]

**Q.** With CN1CCC(N2CCN(c3cccc(C(F)(F)F)c3)CC2)CC1 as the compound, how does the “activity change, negative = inhibition” value read?
**A.** inactive: 12.9%

**Q.** Which “activity change, negative = inhibition” value does the source give for CC1CCCCN1Cc1c(O)ccc2c(=O)c(-c3ccc(Cl)cc3)c(C(F)(F)F)oc12 (configuration not stated) here?
**A.** inactive: 5.3%

**Q.** Which “activity change, negative = inhibition” value does the source give for CC(=O)N[C@@H]1C(O[C@H]2O[C@H](C(=O)O)C(O)[C@H](O)[C@H]2O)[C@H](O)[C@@H](CO)O[C@H]1O[C@@H]1C(C(=O)O)O[C@@H](O[C@H]2[C@H](O)[C@@H](CO)OC(O)[C@@H]2NC(C)=O)[C@H](O)[C@H]1O (some centres not stated) here?
**A.** inactive: 4.56%

**Q.** Which Potency does the source give for O=C1CCC2(CC1)NC(=O)N(c1ccccc1)N2 here?
**A.** inconclusive [inhibitor, single point]

**Q.** For CCN(CC)CCOCCn1c(C)ccc1C, which Potency is on record?
**A.** inconclusive [inhibitor, single point]

**Q.** Which Potency does the source give for Oc1c(Cl)cc(Cl)cc1/C=N/c1ncn[nH]1 here?
**A.** inconclusive [inhibitor, single point]

**Q.** With COc1c(Cl)cc(-c2noc(C)c2C(=O)NCc2ccccc2)cc1Cl as the compound, how does the “activity change, negative = inhibition” value read?
**A.** inactive: 13.8%

**Q.** With CCOc1cc(CNCCc2ccc(S(N)(=O)=O)cc2)ccc1OCc1ccccc1 as the compound, how does the “activity change, negative = inhibition” value read?
**A.** inactive: 2.99%

**Q.** How did the Potency turn out when COc1ccc(N2CCN(C(=O)c3ccccc3F)CC2)c([N+](=O)[O-])c1 was run?
**A.** inconclusive [inhibitor, single point]

**Q.** How did the “activity change, negative = inhibition” value turn out when CCOc1ccc(/C(O)=C2\C(=O)C(=O)N(CCOCCO)C2c2ccccc2OC)cc1 (configuration not stated) was run?
**A.** inactive: 5.13%

**Q.** Which “activity change, negative = inhibition” value does the source give for Cc1ccc(C)c(-n2c(-c3cccnc3)n[nH]c2=S)c1 here?
**A.** inactive: 15.3%

**Q.** With CC1CCCC(NC(=O)CSC2=Nc3ccccc3C3CC=NN23)C1C (configuration not stated) as the compound, how does the Potency read?
**A.** inconclusive [inhibitor, partial curve]

**Q.** How did the Potency turn out when Cc1nc(CCNC(=O)C2CCC(=O)N(Cc3cccc(F)c3)C2)sc1C (configuration not stated) was run?
**A.** inconclusive [inhibitor, single point]

**Q.** With O=C(NCc1ccco1)c1sc2cc(F)ccc2c1Cl as the compound, how does the “activity change, negative = inhibition” value read?
**A.** inactive: 1.3%

**Q.** With COc1ccc(C(=O)Nc2ccc(O)c3ccccc23)cc1OC as the compound, how does the Potency read?
**A.** inconclusive [inhibitor, partial curve]

**Q.** Cc1ccc(CNC(=O)c2cn(C3CCCCC3)c(=O)c3c2c2ccccc2n3C)o1 was tested. Which “activity change, negative = inhibition” value did it give?
**A.** inactive: 15.7%

**Q.** For COC(=O)c1c(C(=O)OC)c(-c2ccc(Cl)cc2)n2c1CS(=O)(=O)C2, which Potency is on record?
**A.** inconclusive [inhibitor, single point]

**Q.** How did the Potency turn out when COc1ccc(C2C=C(c3ccccc3)Nc3nc(NC(C)=O)nn32)cc1 (configuration not stated) was run?
**A.** inconclusive [inhibitor, partial curve, poor fit]

**Q.** For c1cnc(N2CCSCC2)nc1, which Potency is on record?
**A.** inconclusive [inhibitor, single point]

**Q.** CCSc1n[nH]c2nc3c(c(=O)n12)C1(CCCCC1)Cc1ccccc1-3 was tested. Which “activity change, negative = inhibition” value did it give?
**A.** inactive: 0.561%

**Q.** How did the Potency turn out when COc1ccc(CCNC(=O)Cn2ncc3c(=O)oc4ccccc4c32)c(OC)c1 was run?
**A.** inconclusive [inhibitor, full curve, poor fit]

**Q.** For COc1cc(/C=N/Nc2nnc3c(n2)[nH]c2ccccc23)ccc1O, which Potency is on record?
**A.** inconclusive [inhibitor, partial curve, poor fit]

**Q.** With Cc1cc(C)c2nc(-c3cccnc3)cc(C(=O)Nc3ccc(S(=O)(=O)Nc4onc(C)c4C)cc3)c2c1 as the compound, how does the Potency read?
**A.** inconclusive [inhibitor, single point]

**Q.** With Cc1cc(C(=O)CSc2nnc(N)s2)c(C)n1CCc1ccc(F)cc1 as the compound, how does the Potency read?
**A.** inconclusive [inhibitor, single point]

**Q.** Which Potency does the source give for CCc1ccc(S(=O)(=O)/N=C2\C=C(Nc3cccc(C(=O)O)c3)C(=O)c3ccccc32)cc1 here?
**A.** inconclusive [inhibitor, single point]

**Q.** For CCOC(=O)c1c(NC(=O)CSc2nnc(-c3cccnc3)o2)sc(C(C)=O)c1C, which Potency is on record?
**A.** inconclusive [inhibitor, single point]

**Q.** For CC(Sc1nc(N)c2c3c(sc2n1)CSC(C)(C)C3)C(=O)Nc1ccccc1 (configuration not stated), which Potency is on record?
**A.** inconclusive [inhibitor, single point]

**Q.** CC(C)(C)c1ccc(-c2nc(SCC(=O)Nc3ccc(Cl)cc3)[nH]c(=O)c2C#N)cc1 was tested. Which “activity change, negative = inhibition” value did it give?
**A.** inactive: 5.73%

**Q.** How did the “activity change, negative = inhibition” value turn out when COC(=O)C(Cc1ccc(O)cc1)N1Cc2ccccc2C1=O (configuration not stated) was run?
**A.** inactive: 19.8%

**Q.** CC1C(=O)N(Cc2cn(CCC3OCCO3)nn2)CCS(=O)(=O)N1Cc1ccc(-c2ccccc2)cc1 (configuration not stated) was tested. Which Potency did it give?
**A.** inconclusive [inhibitor, partial curve, poor fit]

**Q.** How did the Potency turn out when O=C(Cc1c(F)cccc1Cl)N/N=C/c1cccs1 was run?
**A.** inconclusive [inhibitor, partial curve]

**Q.** For O=C(C#Cc1ccccc1)c1ccc([N+](=O)[O-])cc1, which Potency is on record?
**A.** inconclusive [inhibitor, partial curve]
